The results in this text go back to ChEMBL document CHEMBL4888484, “Replenishing the malaria drug discovery pipeline: Screening and hit evaluation of the MMV Hit Generation Library 1 (HGL1) against asexual blood stage Plasmodium falciparum ,using a nano luciferase reporter read-out” (2022).

For orientation: % Inhibition means the change of the read-out against control, counted positive when it falls.

SMILES strings stand for the structures. The campaign covered roughly 150,000 compounds. About 540 (0.36%) showed an effect of 50% or more. Some of the results follow.

This experiment concerns Plasmodium falciparum. The experiment in a line: Primary screen in NF54 nanoGlo assay, in single point, at 2uM, 72h; a lower Z score goes with more inhibition. Format: functional, Erythrocyte. To be noted: timepoint 72 hour.
For the compound `Cc1ccc(S(=O)(=O)NC2CCN(c3ccccc3C(=O)N3CCN(C4CCCCCC4)CC3)CC2)cc1`, the “% Inhibition” value is reported as -5% and the Z score came out at 0.83.

For `COCC1(c2nc(C3CC3)nn2-c2ccccn2)CCC1`, the “% Inhibition” value is listed as 21% and the Z score is on record as -2.71.

In the case of `O=C(c1n[nH]cc1Cl)N1CCC[C@H](c2[nH]ncc2-c2ccccc2)C1`, the “% Inhibition” value is given as -1% and the Z score came out at 0.13.

For `CC[C@@H](C(=O)N1CCN(c2ccc(NC(=O)CC(C)C)cc2C(=O)NCc2ccc(F)cc2)CC1)c1ccccc1`, the “% Inhibition” value was 11% and the Z score is -1.91.

Consider `N#Cc1c(N)nc2c3c(cc(-c4ccccc4)nc13)-c1ccccc1O2`, for which the “% Inhibition” value was found to be 17% and the Z score is on record as -1.99.

As to `O=C(Cn1nnnc1CN1CCCCCC1)N1CCc2ccccc2C1`, the “% Inhibition” value is recorded as -10% and the Z score was 1.66.

Consider `C[C@]1(O)C[C@@H](Nc2nccnc2C#N)C1`, for which the “% Inhibition” value is recorded as -10% and the Z score came to 1.31.

Turning to `N#Cc1ccc(Nc2ccc3c(c2)OCCO3)nc1`, the “% Inhibition” value is reported as -3% and the Z score came to 0.66.

For `C[C@@H](CN1CCc2ccccc2C1)NC(=O)c1cnc2c(c1)CCCC2`, the “% Inhibition” value is -3% and the Z score is 0.47.

For the compound `O=C(NCCCn1c(-c2ccncc2)nc2cccnc21)Nc1ccccc1`, the “% Inhibition” value is reported as -31% and the Z score worked out at 2.69.

Take `CC(C)c1cc([C@@H]2CCCN2C(=O)c2cccc(F)c2)on1`: the “% Inhibition” value was -10% and the Z score amounted to 1.4.

On to `COCCCOC1CN(C(=O)Nc2cccc(OCc3ccc(F)cc3)c2)C1`, for which the “% Inhibition” value was 2% and the Z score is on record as -0.24.

`Cc1c(CN2CC[C@H](N3CCN(C)CC3)[C@H](CCC(=O)O)C2)[nH]c2ccccc12`: the “% Inhibition” value was -4% and the Z score is listed as 0.69.

As for `Cc1nnc(CCCOc2cccc(C(C)(C)C)c2)o1`, the “% Inhibition” value came out at 2% and the Z score is -0.39.

Turning to `CCCCC[C@H](C)CC(=O)N(C)Cc1nnc2n1CCN(C)C2=O`, the “% Inhibition” value was determined as 2% and the Z score is -0.27.

Take `CCN(CCCNC(=O)CCNC(=O)c1cccc(C)c1)C(=O)OC(C)(C)C`: the “% Inhibition” value is given as -2% and the Z score is listed as 0.46.

As for `O=C(NC[C@H]1CCCO1)c1cc2n(n1)CCN(Cc1ccccc1Cl)C2=O`, the “% Inhibition” value is -9% and the Z score came to 1.34.

On to `Cc1cccc(NC(=O)C2=NCCCN2)c1C`, for which the “% Inhibition” value is -8% and the Z score stood at 0.91.

On to `Cc1ccc(C)c(CN2CC[C@@H]3CN(S(C)(=O)=O)[C@@H]3C2)c1`, for which the “% Inhibition” value is -9% and the Z score was 1.22.

Regarding `O=C(CCS(=O)(=O)c1ccccc1Cl)Nc1ccc(N2CCCCC2)cc1`, the “% Inhibition” value was -16% and the Z score was 2.95.

With `Cc1cnc(NC(=O)[C@@H](C)C(C)(F)F)o1`, the “% Inhibition” value was -23% and the Z score is 2.65.

Turning to `O=C1C[C@]2(C(=O)N(Cc3ccccc3F)c3ccccc32)c2cn[nH]c2N1`, the “% Inhibition” value is listed as -7% and the Z score was found to be 0.74.

Regarding `CC(C)(C)OC(=O)N1CCOc2c(cccc2C(=O)O)C1`, the “% Inhibition” value is given as -6% and the Z score is 0.87.

Regarding `OCC1(C(F)(F)F)CCN(Cc2nnc3n2CCCC3)CC1`, the “% Inhibition” value is listed as -6% and the Z score was 0.59.

Consider `Cc1nc(COC(=O)Cc2ccc(C(N)=O)cc2)oc1C`, for which the “% Inhibition” value turned out to be 7% and the Z score is given as -1.03.

Consider `O=C(c1ccccc1)N(c1c(Cl)c(Cl)c(O)c(Cl)c1Cl)S(=O)(=O)c1ccccc1`, for which the “% Inhibition” value was 2% and the Z score was -0.31.

For `C#CCCCCC(=O)N(C)C1(C(N)=O)CCCC1`, the “% Inhibition” value is recorded as -20% and the Z score was found to be 1.72.

Take `C=CCNC(=O)N[C@H]1CO[C@H]2[C@@H]1OC[C@@H]2Nc1nccc(-c2ccc(OC)cc2)n1`: the “% Inhibition” value was -11% and the Z score was 1.66.

For `COc1cccc(CNC(=O)[C@H]2CCCN(S(=O)(=O)c3c(C)[nH]c(=O)[nH]c3=O)C2)c1`, the “% Inhibition” value is -5% and the Z score came out at 0.72.

Turning to `CS(=O)(=O)c1ccc(-c2cc(F)cc3sc(N)nc23)cc1`, the “% Inhibition” value was found to be 2% and the Z score is listed as -0.31.

For the compound `O=C(Nc1ccc2[nH]ncc2c1)N1CC[C@@H](O)C1`, the “% Inhibition” value is -23% and the Z score came to 2.27.

`CCOC(=O)C(=O)[C@H](C#N)c1ccccc1`: the “% Inhibition” value was -8% and the Z score came out at 0.92.

For the compound `Cn1cc(C(=O)N2Cc3ccccc3-c3ccccc32)ccc1=O`, the “% Inhibition” value is given as -2% and the Z score was 0.34.

`O=c1cc(CN2CCC[C@@](O)(CO)C2)[nH]c2c(F)cccc12`: the “% Inhibition” value is -8% and the Z score stood at 1.08.

On to `COCCNC(=O)NCCC(=O)Nc1cccc(Cl)c1C`, for which the “% Inhibition” value amounted to 0% and the Z score is reported as -0.03.

With `CC(C)C1CC(N2CCCC(C(C)N)C2)CCO1` (configuration not stated), the “% Inhibition” value was -8% and the Z score is 0.7.

For the compound `O=C(NCCc1ccc(F)cc1)C(=O)Nc1ccc(Cl)cn1`, the “% Inhibition” value is listed as -12% and the Z score was 1.82.

Turning to `NC(=O)[C@H]1CC=CC[C@@H]1NS(=O)(=O)c1cccc2nsnc12`, the “% Inhibition” value is given as -7% and the Z score amounted to 0.99.

For `Cc1noc(C)c1CCC(=O)N1CCCN(S(=O)(=O)c2c(C)nn(C)c2C)CC1`, the “% Inhibition” value is recorded as -14% and the Z score was 2.16.

For the compound `Cc1cc(N2CCN(CCOCC(C)C)CC2)n[nH]1`, the “% Inhibition” value was -5% and the Z score was found to be 0.6.

In the case of `CC(C)(CN1[C@H]2CCNC[C@@H]1CC2)N1CCOCC1`, the “% Inhibition” value is given as -23% and the Z score is on record as 2.42.
